The values that follow come from the supplement of paper PMC11417369.

Some of the results follow.

The test system of this assay is PfHDP1 homeodomain (GST-tagged). Put plainly: gcPBM binding intensity (ln(normalized median fluorescence intensity)); higher = stronger DNA binding. The method, boiled down:
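Binding intensity is the highest Masliner-normalised natural-log median intensity over replicate spots in either probe orientation. To obtain it, GST-tagged P. falciparum DNA-binding domains made in E. coli were incubated for 1 h on an Agilent 4 × 180k array of primer-extended double-stranded 36-bp intergenic genomic probes plus negative controls. Detection used Alexa488 anti-GST antibody with scanning at 488 nm.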
As for “TATTATAATAAGAAGTGTACGTGTTTTTATAAATAA [XGTACX_site575]”, the “gcPBM binding intensity (ln)” value was 6.52.

Take “TGATAATAAGCATACACACACACACTAGAAAAAAAA [CACACA_site4558]”: the “gcPBM binding intensity (ln)” value turned out to be 6.79.

On to “TGTTCTTTATTTTATTGTACTTTTAAAATTCCTTTA [XGTACX_site8058]”, for which the “gcPBM binding intensity (ln)” value came out at 6.98.

In the case of “TTATTTATAAACATATGTACTAATACATGATTAACA [XGTACX_site7645]”, the “gcPBM binding intensity (ln)” value is 6.26.

“GACATATATATAAAATGTACATATATATTTACATAT [XGTACX_site7822]”: the “gcPBM binding intensity (ln)” value was found to be 6.44.

For “AATTTATGTTTTAAAAGTACTTTTCTAATTTATAAA [XGTACX_site1593]”, the “gcPBM binding intensity (ln)” value is 6.16.

As to “CTAAAGTAAATTTAAGCACACACAACGAATTTTTAT [CACACA_site8599]”, the “gcPBM binding intensity (ln)” value was 6.7.

On to “TATGTACAGACATATACACACCTCTATAATCTATAT [CACACA_site6482]”, for which the “gcPBM binding intensity (ln)” value turned out to be 6.88.

For “AATTAAAAAAAATACACACACACATACCCATATATA [CACACA_site5767]”, the “gcPBM binding intensity (ln)” value turned out to be 6.95.

For the sequence “AATGATATATTATAAACACACAAAGATGAATATATA [CACACA_site2818]”, the “gcPBM binding intensity (ln)” value amounted to 6.52.

As for “TACCCTCGTATATATATACACACTAAAATACAGACA [CACACA_site4154]”, the “gcPBM binding intensity (ln)” value is 6.98.

Consider “ATTCATTCATATGTTACACACACACCCACCCATAAA [CACACA_site9066]”, for which the “gcPBM binding intensity (ln)” value came out at 8.05.

As for “GTTCCATGAGTATATACATGCATATATCTAGTTTAT [TGCATGCA_site388]”, the “gcPBM binding intensity (ln)” value came to 7.16.

On to “TGTTTATACAATATTTGTACATATATTTTTATTTTT [XGTACX_site4104]”, for which the “gcPBM binding intensity (ln)” value was found to be 6.66.

Regarding “TTTTAAATAAAAAAATTAAATTAAAATATATAAAAA [XGTACX_negctrl_site490]”, the “gcPBM binding intensity (ln)” value is 5.97.

Turning to “CATTTTTACAACGTTGCACACTTCAAAAGGTTTACA [CACACA_site2760]”, the “gcPBM binding intensity (ln)” value is 9.32.

Regarding “GATACTCTCTTTTAATGTACAAAATTTTAAAAATTA [XGTACX_site1781]”, the “gcPBM binding intensity (ln)” value was found to be 6.93.

In the case of “TATAAAAAAAAAAAAAGTACTTAAATATAAATAAAT [XGTACX_site5052]”, the “gcPBM binding intensity (ln)” value is 6.37.

Turning to “TTATGAAGCAGACATGCATGTTATGGCTTAAATAAT [TGCATGCA_site492]”, the “gcPBM binding intensity (ln)” value is 6.67.

Turning to “AAAAAAGAAAAAAACTGTACATGATAAATATTTATT [XGTACX_site7270]”, the “gcPBM binding intensity (ln)” value worked out at 6.61.

Consider “ACATTTTTTTTGTGAGTCTTTGCGGCATCAAAATTT [XGTACX_negctrl_site348]”, for which the “gcPBM binding intensity (ln)” value was 5.85.

Regarding “AGATTATATAAAAAAGTGCATATTTTCATTTTTTTT [GTGCAC_site9448]”, the “gcPBM binding intensity (ln)” value is 6.98.

For the sequence “TTTATCGAATATAATAGTACATAAAAAAAAAAAAAA [XGTACX_site1734]”, the “gcPBM binding intensity (ln)” value was 6.53.

Consider “CATTAAAATGGTAAATGTACATATCCATCTTCTCAC [XGTACX_site4636]”, for which the “gcPBM binding intensity (ln)” value came out at 6.29.

For the sequence “TCCCTTTGTATATATATATAAATATATATATATATA [CACACA_negctrl_site157]”, the “gcPBM binding intensity (ln)” value came out at 8.83.

Take “ACTGTAATATTGAAAGTGCATTAAAGTGTATATTAT [GTGCAC_site9970]”: the “gcPBM binding intensity (ln)” value was found to be 9.24.

For “TTATTTTATTTAGGGTGTACCCAATTTTTCCATATG [XGTACX_site4957]”, the “gcPBM binding intensity (ln)” value is 6.39.

Take “AAAAATTTTTTACATCGTACAGATATATATAATAAA [XGTACX_site3331]”: the “gcPBM binding intensity (ln)” value is 6.45.

For “ATTTATATTTATAAATGTACACATATATATTTCATT [XGTACX_site2723]”, the “gcPBM binding intensity (ln)” value was determined as 6.37.

On to “TCCTATAATTTTTTAATCAAAATATTTTATCCTTTG [CACACA_negctrl_site793]”, for which the “gcPBM binding intensity (ln)” value amounted to 6.41.

As for “AAAAGTAAAAAAAAAAAAAGTAAAAAAAAAAAAAAA [CACACA_negctrl_site389]”, the “gcPBM binding intensity (ln)” value stood at 5.78.

Consider “TAATTTTTTTAAAAGCGTACATTTAAAAAAAAATAT [XGTACX_site2736]”, for which the “gcPBM binding intensity (ln)” value came out at 6.03.

Take “TTACAGATATTTATCTGTACATATATTTAAAAATAT [XGTACX_site7431]”: the “gcPBM binding intensity (ln)” value turned out to be 6.08.

As for “TCTTATCATTTTAAATCACACACATATATATATATA [CACACA_site8925]”, the “gcPBM binding intensity (ln)” value was determined as 9.26.

For the sequence “TTTTTAAATTCTTTAATATGTTTTATATATCAAAAT [CACACA_negctrl_site75]”, the “gcPBM binding intensity (ln)” value is 6.

For the sequence “GTGATTAATATATACACACATACATATATATATATA [CACACA_site2817]”, the “gcPBM binding intensity (ln)” value is 9.28.

With “ATATATATGTATACATGTACATATTTTATTATGTGC [XGTACX_site7207]”, the “gcPBM binding intensity (ln)” value turned out to be 6.53.

For the sequence “AAGAATAACTTTTATACATGCAGCATAATATATTGT [TGCATGCA_site605]”, the “gcPBM binding intensity (ln)” value came out at 6.67.

For “TGTACATATATATATATATATGTTACTGAAATAAAA [CACACA_negctrl_site1658]”, the “gcPBM binding intensity (ln)” value was 6.7.

For the sequence “CTTTTATAATTCATATGTACTTATTTTTAACATAGG [XGTACX_site7808]”, the “gcPBM binding intensity (ln)” value came out at 6.59.

For the sequence “TCTTTTAACACATGTGATATTATTTAATAACAATAA [CACACA_negctrl_site339]”, the “gcPBM binding intensity (ln)” value worked out at 6.51.

For the sequence “GGTATACACAAGTATACACACATATAAATATAAATA [CACACA_site7511]”, the “gcPBM binding intensity (ln)” value came to 6.76.

As to “AATAACCACAGACACACACACATATAAATATAAATA [CACACA_site7631]”, the “gcPBM binding intensity (ln)” value was determined as 6.93.

Take “GTTTTTTTGTTTTAAAGTACTTAAAAAAAAAATATA [XGTACX_site6998]”: the “gcPBM binding intensity (ln)” value worked out at 6.46.
